Source: ChEMBL document CHEMBL4346670, “Discovery of Novel Janus Kinase (JAK) and Histone Deacetylase (HDAC) Dual Inhibitors for the Treatment of Hematological Malignancies” (J Med Chem, 2019)

Experiments:
HEL [1] = experiment: Induction of apoptosis in HEL cells assessed as late apoptotic cells at 0.5 uM after 24 hrs by Annexin-V/propidium iodide staining-based flow cytometric analysis (reference value: 0.023%); assay type: functional, Homo sapiens
[2] = target: Tyrosine-protein kinase Fyn (Homo sapiens) (UniProt P06241); experiment: Inhibition of recombinant human FYN at 200 nM using biotinyl-beta amyloid-beta amyloid-beta AYQAEENTYDEYEN as substrate after 60 mins by HTRF method relative to control
[3] = target: Tyrosine-protein kinase Yes (Homo sapiens) (UniProt P07947); experiment: Inhibition of recombinant human YES at 200 nM using biotinyl-beta amyloid-beta amyloid-beta AYQAEENTYDEYEN as substrate after 30 mins by LANCE method relative to control
[4] = target: 3-phosphoinositide-dependent protein kinase 1 (Homo sapiens) (UniProt O15530); experiment: Inhibition of recombinant human PDK1 at 20 nM using Ulight-FLGFTYVAP as substrate measured after 90 mins by LANCE method relative to control
[5] = target: Phosphorylase b kinase gamma catalytic chain, liver/testis isoform (Homo sapiens) (UniProt P15735); experiment: Inhibition of recombinant human PHKG2 at 200 nM using CREBtide as substrate measured after 30 mins by LANCE method relative to control
[6] = target: Mitogen-activated protein kinase kinase kinase kinase 2 (Homo sapiens) (UniProt Q12851); experiment: Inhibition of recombinant human GCK at 200 nM using Ulight-FLGFTYVAP as substrate measured after 60 mins by LANCE method relative to control
Method in brief: (§1)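 Single-concentration screen within an 85-kinase panel run by a contract lab, with each compound tested at 20 nM and 200 nM. Human recombinant enzymes were used. Activity was quantified as phosphorylation of a peptide substrate read by LANCE time-resolved detection, and inhibition was expressed relative to control, using the same format as the JAK assay.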

[7] = target: Serine/threonine-protein kinase Nek2 (Homo sapiens) (UniProt P51955); experiment: Inhibition of recombinant human NEK2 at 200 nM using Ulight-FLGFTYVAP as substrate measured after 60 mins by LANCE method relative to control
Method in brief: (§2)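 Part of an 85-kinase selectivity panel run by a contract lab, with the test compound at 20 nM and at 200 nM. Each human recombinant kinase's phosphorylation of its peptide substrate was measured following the JAK assay method. Activity is given as percent inhibition.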

[8] = target: Mitogen-activated protein kinase kinase kinase 9 (Homo sapiens) (UniProt P80192); experiment: Inhibition of recombinant human MLK1 at 200 nM using Ulight-FLGFTYVAP as substrate measured after 60 mins by LANCE method relative to control; method in brief: as §2
[9] = Half life in CD1(ICR) mouse at 1 mg/kg, iv by LC-MS/MS analysis; assay type: ADME, organism-based; details: in vivo
Method in brief: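 Male ICR (CD-1) mice dosed IP or IV, vehicle 10% DMSO, 40% PEG400, 50% water. Blood taken from the jugular vein at set time points and held on ice. Plasma separated by centrifugation, stored at -80 °C, and analysed by LC-MS/MS.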

K562 [10] = experiment: Induction of apoptosis in human K562 cells assessed as early apoptotic cells at 0.5 uM after 24 hrs by Annexin-V/propidium iodide staining-based flow cytometric analysis (reference value: 7.55%); assay type: functional
[11] = target: Serine/threonine-protein kinase B-raf (Homo sapiens) (UniProt P15056); experiment: Inhibition of recombinant human BRAF at 200 nM using inactive MEK as substrate measured after 30 mins by LANCE method relative to control
[12] = target: Fibroblast growth factor receptor 4 (Homo sapiens) (UniProt P22455); experiment: Inhibition of recombinant human FGFR4 at 20 nM using Ulight-CAGAGAIETDKEYYTVKD as substrate measured after 60 mins by LANCE method relative to control; method in brief: as §1
[13] = target: Protein-tyrosine kinase 2-beta (Homo sapiens) (UniProt Q14289); experiment: Inhibition of recombinant human PYK2 at 200 nM using Ulight-TK peptide as substrate measured after 15 mins by LANCE method relative to control
[14] = Half life in human liver microsomes at 1 uM in presence of NADPH cofactor for phase 1 metabolism and measured upto 60 mins by LC-MS/MS analysis; assay type: ADME, Microsome
Method in brief: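 Liver microsomes (rat or human) incubated with compound at 37 °C, with NADPH for phase I or UDPGA for phase II. Reactions stopped in acetonitrile at set time points, vortexed 5 min, stored at -80 °C. Parent remaining in supernatant measured by LC-MS/MS. t1/2 = -0.693/k, with k the slope of ln fraction remaining versus time.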

[15] = target: Tyrosine-protein kinase TXK (Homo sapiens) (UniProt P42681); experiment: Inhibition of recombinant human TXK at 20 nM using Ulight-Poly GAT[EAY(1:1:1)] as substrate measured after 30 mins by LANCE method relative to control
[16] = target: Membrane-associated tyrosine- and threonine-specific cdc2-inhibitory kinase (Homo sapiens) (UniProt Q99640); experiment: Inhibition of recombinant human MYT1 at 200 nM using CREBtide as substrate measured after 60 mins by LANCE method relative to control; method in brief: as §2
[17] = target: Mitogen-activated protein kinase 14 (Homo sapiens) (UniProt Q16539); experiment: Inhibition of recombinant human P38alpha at 200 nM using Ulight-CFFKNIVTPRTPPPSQGK-amide as substrate measured after 30 mins by LANCE assay relative to control; method in brief: as §2
[18] = target: Serine/threonine-protein kinase Sgk1 (Homo sapiens) (UniProt O00141); experiment: Inhibition of recombinant human SGK1 at 20 nM using Ulight-RRRSLLE as substrate measured after 30 mins by LANCE method relative to control
[19] = target: cAMP-dependent protein kinase catalytic subunit PRKX (Homo sapiens) (UniProt P51817); experiment: Inhibition of recombinant human PRKX at 200 nM using Ulight-RRRSLLE as substrate measured after 30 mins by LANCE method relative to control
HEL [20] = experiment: Antitumor activity against HEL cells xenografted in BALB/c nu mouse assessed as reduction in tumor volume at 100 mg/kg/day, ip administered for 16 days and measured every 3 days during compound dosing by caliper method relative to control; assay type: functional, Homo sapiens; details: read-out: TGI
[21] = target: Serine/threonine-protein kinase 4 (Homo sapiens) (UniProt Q13043); experiment: Inhibition of recombinant human MST1 at 20 nM using Ulight-FLGFTYVAP as substrate measured after 60 mins by LANCE method relative to control; method in brief: as §2
[22] = target: Tyrosine-protein kinase ABL2 (Homo sapiens) (UniProt P42684); experiment: Inhibition of recombinant human ARG at 20 nM using Ulight-TK peptide as substrate measured after 60 mins by LANCE assay relative to control
Method in brief: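 Human recombinant kinases tested at 20 nM and 200 nM compound in an outsourced panel of 85 kinases. Activity measured as phosphorylation of a ULight-labelled substrate by LANCE detection, expressed as inhibition relative to control.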

K562 [23] = experiment: Induction of apoptosis in human K562 cells assessed as viable cells at 0.5 uM after 24 hrs by Annexin-V/propidium iodide staining-based flow cytometric analysis (reference value: 85.7%); assay type: functional; details: K562, 24 h, read-out: Activity

UniProt P42684, sequence (P42684 whole entry): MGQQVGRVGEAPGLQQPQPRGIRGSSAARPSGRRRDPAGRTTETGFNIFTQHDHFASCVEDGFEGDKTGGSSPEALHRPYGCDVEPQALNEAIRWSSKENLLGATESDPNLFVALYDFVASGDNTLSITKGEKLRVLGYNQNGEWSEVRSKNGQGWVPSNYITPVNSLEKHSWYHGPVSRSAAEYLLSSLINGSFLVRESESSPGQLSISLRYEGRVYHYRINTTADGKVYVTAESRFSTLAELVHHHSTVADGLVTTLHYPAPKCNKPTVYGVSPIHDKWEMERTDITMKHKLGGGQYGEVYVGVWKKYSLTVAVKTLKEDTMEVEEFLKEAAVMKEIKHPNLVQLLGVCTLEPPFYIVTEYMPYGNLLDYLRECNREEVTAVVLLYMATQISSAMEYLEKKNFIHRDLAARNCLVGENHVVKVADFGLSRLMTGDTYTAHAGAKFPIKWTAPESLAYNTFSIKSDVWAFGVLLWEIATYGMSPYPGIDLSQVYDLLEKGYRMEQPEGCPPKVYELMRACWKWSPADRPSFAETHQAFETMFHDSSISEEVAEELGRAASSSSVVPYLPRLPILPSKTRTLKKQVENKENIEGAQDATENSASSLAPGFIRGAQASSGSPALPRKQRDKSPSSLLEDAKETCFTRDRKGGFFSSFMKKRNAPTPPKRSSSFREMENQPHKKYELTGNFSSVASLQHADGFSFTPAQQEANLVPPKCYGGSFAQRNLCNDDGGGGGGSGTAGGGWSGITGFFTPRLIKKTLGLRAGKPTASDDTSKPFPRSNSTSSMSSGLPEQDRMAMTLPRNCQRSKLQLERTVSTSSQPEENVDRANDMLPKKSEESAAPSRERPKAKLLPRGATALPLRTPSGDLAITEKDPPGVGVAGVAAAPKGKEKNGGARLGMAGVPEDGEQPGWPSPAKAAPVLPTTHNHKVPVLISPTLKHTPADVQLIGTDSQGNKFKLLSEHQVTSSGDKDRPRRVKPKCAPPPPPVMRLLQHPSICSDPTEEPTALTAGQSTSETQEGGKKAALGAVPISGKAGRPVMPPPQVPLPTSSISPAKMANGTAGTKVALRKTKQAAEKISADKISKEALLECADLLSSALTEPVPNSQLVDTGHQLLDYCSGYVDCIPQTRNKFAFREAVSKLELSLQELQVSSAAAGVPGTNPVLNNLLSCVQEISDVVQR
UniProt P06241, sequence (P06241 whole entry, looked up): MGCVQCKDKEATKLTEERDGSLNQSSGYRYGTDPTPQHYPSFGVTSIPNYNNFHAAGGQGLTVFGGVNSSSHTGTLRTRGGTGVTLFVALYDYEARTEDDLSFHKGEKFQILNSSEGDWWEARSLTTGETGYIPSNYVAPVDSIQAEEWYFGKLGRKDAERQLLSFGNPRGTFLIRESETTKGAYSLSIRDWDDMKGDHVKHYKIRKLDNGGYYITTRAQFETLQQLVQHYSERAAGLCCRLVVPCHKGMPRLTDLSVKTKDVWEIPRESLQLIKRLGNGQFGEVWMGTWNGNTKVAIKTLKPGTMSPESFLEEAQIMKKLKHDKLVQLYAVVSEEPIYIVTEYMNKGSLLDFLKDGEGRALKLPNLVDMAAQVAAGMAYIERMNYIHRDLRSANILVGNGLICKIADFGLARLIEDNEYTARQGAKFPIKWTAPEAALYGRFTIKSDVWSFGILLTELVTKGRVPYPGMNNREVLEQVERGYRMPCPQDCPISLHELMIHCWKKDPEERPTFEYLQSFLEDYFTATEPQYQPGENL
UniProt P42681, sequence (P42681 whole entry): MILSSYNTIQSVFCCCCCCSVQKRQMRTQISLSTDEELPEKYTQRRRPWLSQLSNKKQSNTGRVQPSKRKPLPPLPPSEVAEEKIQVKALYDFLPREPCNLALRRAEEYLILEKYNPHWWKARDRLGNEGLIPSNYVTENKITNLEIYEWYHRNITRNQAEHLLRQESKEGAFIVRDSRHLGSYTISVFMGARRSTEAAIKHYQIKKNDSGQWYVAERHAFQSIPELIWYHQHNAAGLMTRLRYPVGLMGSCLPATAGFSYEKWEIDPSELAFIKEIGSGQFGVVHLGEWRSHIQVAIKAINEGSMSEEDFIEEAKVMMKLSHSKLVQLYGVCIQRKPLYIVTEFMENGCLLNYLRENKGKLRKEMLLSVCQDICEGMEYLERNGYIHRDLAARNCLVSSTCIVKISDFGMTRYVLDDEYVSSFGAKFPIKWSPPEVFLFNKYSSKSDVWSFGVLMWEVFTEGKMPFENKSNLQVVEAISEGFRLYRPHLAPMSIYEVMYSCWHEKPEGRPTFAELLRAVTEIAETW
UniProt P15735, sequence (P15735 whole entry): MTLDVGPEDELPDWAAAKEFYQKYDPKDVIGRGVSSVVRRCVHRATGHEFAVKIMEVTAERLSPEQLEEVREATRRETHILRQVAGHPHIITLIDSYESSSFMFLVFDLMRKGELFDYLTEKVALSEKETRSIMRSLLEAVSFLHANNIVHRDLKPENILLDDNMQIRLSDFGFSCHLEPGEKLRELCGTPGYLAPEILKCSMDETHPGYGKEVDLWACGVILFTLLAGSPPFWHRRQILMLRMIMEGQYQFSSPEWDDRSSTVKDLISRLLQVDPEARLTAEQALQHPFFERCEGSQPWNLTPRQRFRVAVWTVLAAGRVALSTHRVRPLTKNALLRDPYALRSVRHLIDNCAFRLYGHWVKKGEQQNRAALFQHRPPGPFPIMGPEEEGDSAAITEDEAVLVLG
UniProt Q16539, sequence (Q16539 whole entry): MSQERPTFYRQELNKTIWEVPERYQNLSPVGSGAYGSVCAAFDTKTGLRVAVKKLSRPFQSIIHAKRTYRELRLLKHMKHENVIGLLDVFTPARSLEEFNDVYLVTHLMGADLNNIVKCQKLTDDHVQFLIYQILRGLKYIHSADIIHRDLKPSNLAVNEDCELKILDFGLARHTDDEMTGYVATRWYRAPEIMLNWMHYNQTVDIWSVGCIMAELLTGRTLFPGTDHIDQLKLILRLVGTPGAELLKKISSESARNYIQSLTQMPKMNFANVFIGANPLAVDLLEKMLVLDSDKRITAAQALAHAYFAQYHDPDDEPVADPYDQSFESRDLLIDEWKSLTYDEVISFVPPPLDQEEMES
UniProt P51817, sequence (P51817 whole entry): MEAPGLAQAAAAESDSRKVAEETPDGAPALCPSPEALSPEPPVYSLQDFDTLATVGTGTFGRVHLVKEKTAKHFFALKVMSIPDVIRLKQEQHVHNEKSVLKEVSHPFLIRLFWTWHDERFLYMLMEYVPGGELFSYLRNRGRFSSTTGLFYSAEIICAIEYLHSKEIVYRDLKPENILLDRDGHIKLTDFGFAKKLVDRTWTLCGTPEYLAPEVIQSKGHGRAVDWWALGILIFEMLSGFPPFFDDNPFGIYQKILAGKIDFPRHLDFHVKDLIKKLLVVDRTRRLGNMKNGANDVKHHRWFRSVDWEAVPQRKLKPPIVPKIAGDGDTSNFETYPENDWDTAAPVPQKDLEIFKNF
UniProt P07947, sequence (P07947 whole entry, looked up): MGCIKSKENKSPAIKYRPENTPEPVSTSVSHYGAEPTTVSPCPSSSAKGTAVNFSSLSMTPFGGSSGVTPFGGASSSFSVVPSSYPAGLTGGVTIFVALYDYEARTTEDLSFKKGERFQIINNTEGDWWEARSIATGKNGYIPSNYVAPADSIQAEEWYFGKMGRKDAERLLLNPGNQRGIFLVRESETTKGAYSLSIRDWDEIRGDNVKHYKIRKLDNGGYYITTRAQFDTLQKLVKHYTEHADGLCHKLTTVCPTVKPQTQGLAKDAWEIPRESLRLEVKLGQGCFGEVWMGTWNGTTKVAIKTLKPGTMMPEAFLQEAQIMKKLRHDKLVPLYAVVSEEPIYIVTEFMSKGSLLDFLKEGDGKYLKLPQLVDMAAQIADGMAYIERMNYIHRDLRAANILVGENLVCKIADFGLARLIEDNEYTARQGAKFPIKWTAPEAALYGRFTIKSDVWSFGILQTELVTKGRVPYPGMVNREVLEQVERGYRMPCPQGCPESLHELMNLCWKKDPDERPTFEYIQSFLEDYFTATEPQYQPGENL
UniProt Q99640, sequence (Q99640 whole entry): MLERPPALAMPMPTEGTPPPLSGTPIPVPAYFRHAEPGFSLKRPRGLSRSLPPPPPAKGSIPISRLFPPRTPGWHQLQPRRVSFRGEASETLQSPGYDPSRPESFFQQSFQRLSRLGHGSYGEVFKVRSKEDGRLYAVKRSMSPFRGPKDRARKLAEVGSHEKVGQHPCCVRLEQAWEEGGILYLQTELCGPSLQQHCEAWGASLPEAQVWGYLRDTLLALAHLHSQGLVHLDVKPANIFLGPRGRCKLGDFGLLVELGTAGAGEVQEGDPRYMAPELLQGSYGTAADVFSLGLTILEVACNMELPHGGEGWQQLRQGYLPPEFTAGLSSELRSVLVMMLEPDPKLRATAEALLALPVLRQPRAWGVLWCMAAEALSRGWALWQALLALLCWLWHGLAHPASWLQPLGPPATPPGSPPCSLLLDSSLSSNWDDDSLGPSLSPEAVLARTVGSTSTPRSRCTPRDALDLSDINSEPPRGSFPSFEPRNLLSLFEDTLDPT
UniProt P51955, sequence (P51955 whole entry): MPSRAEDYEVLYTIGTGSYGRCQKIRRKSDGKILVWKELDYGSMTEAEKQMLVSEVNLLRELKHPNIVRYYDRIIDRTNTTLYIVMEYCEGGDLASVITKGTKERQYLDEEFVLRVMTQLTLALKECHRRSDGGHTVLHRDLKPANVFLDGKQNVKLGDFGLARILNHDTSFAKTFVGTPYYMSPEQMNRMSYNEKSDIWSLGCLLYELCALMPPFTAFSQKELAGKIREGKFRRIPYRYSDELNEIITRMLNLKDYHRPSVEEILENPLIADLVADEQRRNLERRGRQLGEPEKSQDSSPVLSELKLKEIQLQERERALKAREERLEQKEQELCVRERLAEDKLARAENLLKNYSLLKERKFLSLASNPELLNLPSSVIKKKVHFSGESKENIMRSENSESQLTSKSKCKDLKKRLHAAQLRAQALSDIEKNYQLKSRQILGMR

inhibition [2]: 42%
inhibition [3]: 44%
inhibition [4]: 5%
inhibition [5]: 15%
inhibition [6]: 26%
inhibition [7]: 15%
inhibition [8]: 89%
half-life [9]: 19.2 min
inhibition [11]: 5%
inhibition [12]: -6%
inhibition [13]: 26%
half-life at 1 µM [14]: 25.8 min
inhibition [15]: 6%
inhibition [16]: 0%
inhibition [17]: 0%
inhibition [18]: 5%
inhibition [19]: 0%
inhibition [21]: -4%
inhibition [22]: -3%
Compound: O=C(CCCCCn1cc(Nc2ncc(Cl)c(Nc3ccc(Cl)cc3)n2)cn1)NO
Activity (HEL [1]): 67.9%
Activity (K562 [10]): 36.9%
inhibition in vivo at 100 mg/kg/day (HEL [20]): 36%
viability at 0.5 µM (K562 [23]): 28.2%
